# In all, about 94,000 compounds went through this assay and about 4,000 (4.3%) were called active. This list was built around the results that the source calls inconclusive (neither active nor inactive); the mix of calls is not that of the screen. Calls follow the shape of the dose curve; as a rule, active = well fitted inhibition curve with a large enough effect; inconclusive = small, poorly fitted or top-dose-only effect; inactive = no such curve, though single readings can be large or run the other way. A potency beside an inconclusive call is a rough fit, not a confirmed value.
# Assay: Cytotoxic Profiling in NIH 3T3 Cell Line of Diverse Libraries Using Quantitative High-Throughput Screening; also: nearly all actives have a fitted effect of over 55% in size
# Conditions: NIH 3T3 viability, CellTiter-Glo ATP luminescence, 48-72 h; activity change, negative = cytotoxicity: at 96.7 µM (top of the series) unless noted; series mostly up to 96.7 µM
# Summary of the method: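 Viability of NIH 3T3 cells after 48 or 72 hr compound treatment at 37 °C was assessed by CellTiter-Glo, with luminescence imaged following a 10 min room-temperature step.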
# % is scaled to controls: 0 for no effect and ±100 for the full control effect; potency is read from the fitted curve at half-maximal effect; tags tell the direction and shape of the fitted curve.
SMILES,Potency,"activity change, negative = cytotoxicity",outcome
CC(=O)N1CCN(c2ncccc2CNCc2ccc(CC(C)C)cc2)CC1,"inconclusive: 44.7 µM [inhibitor, partial curve, poor fit]",,
CC1=C[C@@H](CNc2ccccn2)[C@H](C(C)C)C[C@H]1Cc1nnc(-c2ccc(C)cc2)o1,active: 39.8 µM,,
Cc1ccccc1Oc1c(CCC(=O)N2CCSCC2)c(C)nn1-c1ccccc1C,"inconclusive: 50.1 µM [inhibitor, partial curve, poor fit]",,
COc1cccc(CC(=O)NC2CCN(C(=O)c3cc4c(=O)[nH]c(C)cn4n3)CC2)c1,,inactive: 3.55%,
Cc1ccc(-n2cccc2CC(=O)N(C)Cc2ccco2)cc1,"inconclusive: 44.7 µM [inhibitor, partial curve, poor fit]",,
CCn1ccc2oc(C)c(C(=O)N3CCN(c4ccc(OC)cc4)CC3)c2c1=O,,,inactive
COc1ccc(-c2cc(C(=O)NCC[S+](C)(=O)[O-])c3c(c2)N(C)CCO3)cn1,"inconclusive: 100 µM [inhibitor, single point]",,
COCCN1C(=O)CCC2(CNC(=O)COc3ccc(F)cc3)CCCC=C12 (stereo unspecified),,inactive: -11.2%,
COc1ccc(-n2cc(-c3ccnc(NCCC4CCCN4C)n3)cn2)cc1 (stereo unspecified),"inconclusive: 44.7 µM [inhibitor, partial curve]",,
CCOCCNC(=O)c1cc(-c2ccc(Cl)cc2Cl)nc2c1cnn2C,"inconclusive: 50.1 µM [inhibitor, partial curve, poor fit]",,
COc1ccc(-c2noc(CC3CCN(C(=O)c4cc(OC)c(OC)c(OC)c4)CC3)n2)cc1,active: 12.6 µM,,
CCCN(CC1CCOC1)C(=O)Cc1cccc(Cl)c1 (stereo unspecified),,inactive: -10.5%,
O=C(O)C1(Cc2ccccc2F)CCCN(c2ncnc3sccc23)C1 (stereo unspecified),,inactive: -26.8%,
O=C1CCN(CC(O)COc2ccccc2)c2cc3c(cc2CN1CC1CC1)OCO3 (stereo unspecified),"inconclusive: 70.8 µM [inhibitor, single point]",,
O=C(Nc1cccnc1)c1cc(-c2ccccc2F)cc2c1OCCN2Cc1cccnc1,active: 39.8 µM,,
CCc1ccccc1-n1nc(-c2c(C)nc3scc(CC(=O)NCCC(C)C)n3c2=O)cc1C,"inconclusive: 39.8 µM [inhibitor, partial curve]",,
O=C(c1ccc(Cl)cc1)N1CCOCC12CCN(CCc1ccccc1)CC2,"inconclusive: 79.4 µM [inhibitor, partial curve, poor fit]",,
Clc1cc(N2CCN(c3ncccn3)CC2)n2nccc2n1,"inconclusive: 112 µM [inhibitor, single point]",,
CCOC(=O)CCCOc1cccn2c(=O)c(-c3cc(C)n(-c4ccccc4)n3)c(C)nc12,,inactive: 1.61%,
CSCCNC(=O)C1CCN(c2nc3ncccc3o2)CC1,,inactive: -10% [at 138 µM],
O=C(Cc1ccc(F)cc1)NC1CCN(c2ccnc3ccnn23)CC1,"inconclusive: 50.1 µM [inhibitor, full curve, poor fit]",,
CCC(c1ccccc1)N1Cc2cc(NS(=O)(=O)c3ccc(F)cc3)ccc2OC(C)C1=O (stereo unspecified),active: 14.1 µM,,

SMILES,Potency,"activity change, negative = cytotoxicity",outcome
CNC(=O)[C@@H]1CN2CCN(C(=O)CC3CCCC3)C[C@@H]2[C@H]1c1ccccc1,"inconclusive: 63.1 µM [inhibitor, partial curve, poor fit]",,
O=C(c1cccc(Cl)c1)N1CCN(C(=O)c2nnn3c2COC(c2ccccc2)C3)CC1 (stereo unspecified),"inconclusive: 44.7 µM [inhibitor, partial curve, poor fit]",,
COCCNc1cc(-c2cc(C(F)(F)F)ccn2)c2cc[nH]c2n1,"inconclusive: 79.4 µM [inhibitor, partial curve, poor fit]",,
O=C(C[C@@H]1O[C@H](CNCc2ccc(F)cc2)[C@@H](O)[C@H]1O)NCCN1CCOCC1,"inconclusive: 126 µM [inhibitor, single point]",,
COc1ccc(CCN(C)C2CCCN(c3ncccc3C#N)C2)cc1OC (stereo unspecified),,inactive: -20.2%,
COc1cccc(CCC(=O)N[C@@H]2CN(c3ncccn3)C[C@H]2CO)c1,,inactive: 3.49%,
COc1ccc(CN2CCc3nc(C(=O)NCc4ccncc4)oc3CC2)cc1,"inconclusive: 28.2 µM [inhibitor, partial curve]",,
COc1ccc(Cn2ccn3nc4c(c3c2=O)CCCC4)cc1F,"inconclusive: 44.7 µM [inhibitor, partial curve, poor fit]",,
Cc1cccc(NC(=O)N2CCC(CCNC(=O)Cc3cccc(F)c3)CC2)c1,"inconclusive: 50.1 µM [inhibitor, partial curve, poor fit]",,
COc1ccc(Cn2nc(C3CC3)nc2-c2c(F)cccc2Cl)cc1,"inconclusive: 35.5 µM [inhibitor, partial curve, poor fit]",,
COc1ccc(C(=O)N2CCC[C@@H]2C(=O)N2CCC(N3CCOC3=O)CC2)cc1,,inactive: -13.6%,
COc1cccc(-c2cc3c(=O)n(CCNC(=O)c4ccc(C)cc4)ccn3n2)c1,"inconclusive: 31.6 µM [inhibitor, full curve, poor fit]",,
Cn1nc(C2CCN(C(=O)CCC3CCCC3)CC2)c2c1CCOC2,"inconclusive: 70.8 µM [inhibitor, single point]",,
CN1CCN(C(=O)c2ccc(-c3ccc(N4CCCCC4)nc3)cc2)CC1,"inconclusive: 50.1 µM [inhibitor, partial curve, poor fit]",,
CCNC(=O)c1coc(COc2ccc3c(c2)C(c2ccc(F)cc2)N(C(=O)CC(C)C)CC3)n1 (stereo unspecified),"inconclusive: 50.1 µM [inhibitor, partial curve, poor fit]",,
CC(C)CN1C(=O)C(C)(C)[S+](=O)([O-])[C@@H]2CN(Cc3ccncc3)C[C@@H]21,"inconclusive: 112 µM [inhibitor, single point]",,
CCC1Oc2ccc(NC(=O)C(CC)c3ccccc3)cc2CN(Cc2ccc(OC)cc2)C1=O (stereo unspecified),"inconclusive: 31.6 µM [inhibitor, partial curve]",,
COc1ccc(CN2CCc3ncc(C(=O)NCc4cccc(Cl)c4)n3CC2)cn1,"inconclusive: 56.2 µM [inhibitor, partial curve, poor fit]",,
O=C(O)c1ccc(CC2CCN(C(=O)c3cccc(-n4cccn4)c3)C2)cc1 (stereo unspecified),"inconclusive: 89.1 µM [inhibitor, single point]",,
O=C(NCc1cccnc1)[C@@H]1C[C@H](c2ccc(F)cc2)N(Cc2ccccc2Cl)C1,"inconclusive: 63.1 µM [inhibitor, partial curve, poor fit]",,
Cc1nc(C)c(C(=O)NCc2cccnc2N(C)C2CCCCC2)s1,"inconclusive: 35.5 µM [inhibitor, partial curve, poor fit]",,
COc1ccccc1CNC(=O)C1Cn2cccc2C(=O)N1CC(C)C (stereo unspecified),,inactive: -13%,

SMILES,Potency,"activity change, negative = cytotoxicity",outcome
Cn1cc(CN2CCOc3cc([S+](=O)([O-])Nc4nncs4)ccc3C2)cn1,"inconclusive: 56.2 µM [inhibitor, partial curve, poor fit]",,
O=C(COc1ccccc1)NCCC1CCN(C(=O)Nc2ccccc2)CC1,,inactive: -6.43%,
Cc1ccccc1N1Cc2c(NCCc3ccc(Cl)cc3)ncnc2N(C)CC1=O,"inconclusive: 39.8 µM [inhibitor, partial curve, poor fit]",,
CC(C)CNc1ccc2c(n1)C(C)(C(=O)NCc1ccco1)CN(Cc1ccccc1)C2 (stereo unspecified),active: 39.8 µM,,
CCCN1CCCC12Cc1ccccc1CN(C(C)=O)C2 (stereo unspecified),"inconclusive: 100 µM [inhibitor, single point]",,
CCN1CCN(c2ncnc3c2CN(C2CCCCC2)C(=O)CN3C)CC1,,inactive: -7.98%,
COc1ccc(NC(=O)Cn2c(C)cc3nc4n(c(=O)c32)CCC4)c(OC)c1,,,inactive
COc1cccc(CN2CC[C@H](c3nc4cc(Cl)ccc4o3)C2)c1,active: 89.1 µM,,
O=C(c1ccccc1)N1CCN(c2nc3ncccc3o2)CC1,,inactive: -13.6% [at 138 µM],
Cc1ccc(OCC(=O)c2ccc3c(c2)N(CCCC(=O)NC2CCCCC2)C(=O)CO3)cc1C,"inconclusive: 50.1 µM [inhibitor, partial curve, poor fit]",,
Cc1nnc2ccc(N3CCCC(N[S+](=O)([O-])c4ccccc4)C3)nn12 (stereo unspecified),,inactive: -13.3%,
CCN(C(=O)CN1C(=O)NC2(CCC(C)CC2)C1=O)c1cccc(C)c1 (stereo unspecified),,inactive: -25.1%,
c1ccc(CO[C@H]2COCCN(c3nc4ccccc4s3)C2)cc1,"inconclusive: 112 µM [inhibitor, single point]",,
COc1cccc(CNC(=O)c2c(C)noc2-c2ccccc2OC)c1,,inactive: -10%,
CNC(=O)N1CCC(C2CCN(C(=O)NC(C)C)C2)CC1 (stereo unspecified),,inactive: -1.02%,
O=C1[C@@H]2C[C@@H](O)CN2C2(CN(Cc3ccccn3)C2)C(=O)N1Cc1ccccc1Cl,"inconclusive: 70.8 µM [inhibitor, partial curve]",,
CC(O)CN1CC2(CCC1=O)CCN(C(=O)c1ccnn1C)CC2 (stereo unspecified),,inactive: -11%,
COc1ccc(Nc2ccnc(N3CCN(C(=O)c4ccccc4F)CC3)n2)cc1,active: 35.5 µM,,
CCc1nc2c(NC(=O)Nc3cccc(C(=O)OC)c3)cccn2n1,"inconclusive: 44.7 µM [inhibitor, partial curve, poor fit]",,
O=C(Nc1cccnc1)c1nc2c(o1)CCN(CCCc1ccccc1)CC2,"inconclusive: 79.4 µM [inhibitor, partial curve, poor fit]",,
Cc1ncsc1C(=O)N1CCCC(C)(Cc2ccc3c(c2)OCO3)C1 (stereo unspecified),"inconclusive: 56.2 µM [inhibitor, partial curve, poor fit]",,
Cc1cc(CNC(=O)c2cc(-c3cccnc3)cc3c2OCCN3C)no1,"inconclusive: 89.1 µM [inhibitor, partial curve, poor fit]",,
